Substrate: O=C(OCc1ccccc1)c1ccccc1-c1c2ccc(=O)cc-2oc2cc(OCc3ccccc3)ccc12
Test: pFluor50 Michaelis–Menten kinetics, CYP3A4 with DBF
Format: in vitro ADME, human
Conditions: pH 7.4
Experimental: In general, the protocol for determination of the Michaelis–Menten kinetic parameters (KM and Vmax) involved addition of the appropriate master mix to phosphate buffer followed by addition of the appropriate amount of enzyme to the mix. The master mix was determined for each specific CPY450 based on empirical methods involving each reagent to obtain a linear range of enzyme activity. A total of 30 µL of this enzyme mix was then added to each well of the 384-well plate. Next, initial background readings were taken for 5 min, after which the appropriate amount of substrate was dispensed into each well using the onboard reagent dispenser of the plate reader. All plates contained one blank well without enzyme (only master mix) for each substrate concentration. […] Table 1 provides the formulation of the master mix for each CYP, the kinetic read time with substrate, the read time interval, the concentration range of the substrate used for the Michaelis–Menten kinetics, the Ex and Em wavelengths, and the concentration of substrate for inhibition/activation screening. Table S1 details the specific parameters used for the plate reader for each CYP–substrate pair.
For determining the Michaelis–Menten kinetic parameters (KM and Vmax) for each CYP–substrate pair, kinetic studies were performed in which a range of different concentrations of the substrate were used. Table 1 details the formulations for the master mix, CYPexpress^TM concentrations, and concentration ranges of each specific substrate. For each CYP–substrate pair, plate reader parameters were set up as described in Table S1. The protocol used for Michaelis–Menten kinetics was similar for all the CYPs. Briefly, the working solution was prepared for each substrate and then primed into one of the dispensers on the plate reader. The other dispenser was primed with the buffer solution. 1.5 mL of phosphate buffer solution (pH 7.4) was used to prepare the master mix with the appropriate concentration of each reagent as specified in Table 1 (NADPH, NADP+, G6P, G6PDH, and/or MgCl2). The amount of CYPexpress reagent in units/(mg/mL) was determined for each enzyme as new lots may have slightly different activities, and the activity of the reagent may change over time. The appropriate mass of each CYPexpress^TM reagent needed to obtain the required units was measured using an analytical balance and was transferred to the master mix solution. This solution was mixed, and 30 µL of the solution was added to each well using a multichannel pipette. […] The plate was then transferred to the plate reader and readings were taken at the time intervals, for the appropriate length of time, and at the appropriate wavelengths as specified in Table 1.
Calibration curves were constructed using the determined plate reader settings (Figure S3) and concentrations of the products formed to allow for the calculation of product formation rates based on the observed fluorescence. For these calculations, we presumed that the total increase in observed fluorescence over time was due only to product formation. Calibration curves were generated with 6 different concentrations of the products (fluorescein and resorufin), which spanned the relative fluorescence units (RFU) observed during the kinetic experiments. […] Therefore, the exact rate of formation could not be determined, and the Vmax for CYP3A4 cleavage of dibenzyl fluorescein has been reported as the rate of change in relative fluorescence units (RFUs) per minute.

[1] = other: CYP3A4 1 mg/mL, three biological replicates

B1: CYP3A4 (Homo sapiens) (protein)
chain: ALIPDLAMETWLLLAVSLVLLYLYGTHSHGLFKKLGIPGPTPLPFLGNILSYHKGFCMFDMECHKKYGKVWGFYDGQQPVLAITDPDMIKTVLVKECYSVFTNRRPFGPVGFMKSAISIAEDEEWKRLRSLLSPTFTSGKLKEMVPIIAQYGDVLVRNLRREAETGKPVTLKDVFGAYSMDVITSTSFGVNIDSLNNPQDPFVENTKKLLRFDFLDPFFLSITVFPFLIPILEVLNICVFPREVTNFLRKSVKRMKESRLEDTQKHRVDFLQLMIDSQNSKETESHKALSDLELVAQSIIFIFAGYETTSSVLSFIMYELATHPDVQQKLQEEIDAVLPNKAPPTYDTVLQMEYLDMVVNETLRLFPIAMRLERVCKKDVEINGMFIPKGVVVMIPSYALHRDPKYWTEPEKFLPERFSKKNKDNIDPYIYTPFGSGPRNCIGMRFALMNMKLALIRVLQNFSFKPCKETQIPLKLSLGGLLQPEKPVVLKVESRDGTVSGA
notes: purchased Sigma Aldrich (CYPexpress, Oxford Biomedical Research, Inc.) MTOXCE3A4
Km [1]: 1.77 ± 0.3 µM | Vmax [1]: 91.20 ± 13.9 (RFU/min) | Km (other: CYP3A4, biological repeat 1): 2.12 µM | Km (other: CYP3A4, biological repeat 2): 1.56 µM | Km (other: CYP3A4, biological repeat 3): 1.61 µM

— article PMC12074421, “Development and Characterization of pFluor50, a Fluorogenic-Based Kinetic Assay System for High-Throughput Inhibition Screening and Characterization of Time-Dependent Inhibition and Inhibition Type for Six Human CYPs” (Molecules, 2025)
